Measured values: the BET-seq Pho4 binding data (Le et al. 2018)
Some of the results follow. The energies were worked out here from pooled read counts, against the library average; single values are noisy.

These sequences were tested against T1, Pho4 (S. cerevisiae) (UniProt P07270) (assay: relative binding free energy (BET-seq); higher = weaker binding). Conditions: reference: library average.
T1 sequence: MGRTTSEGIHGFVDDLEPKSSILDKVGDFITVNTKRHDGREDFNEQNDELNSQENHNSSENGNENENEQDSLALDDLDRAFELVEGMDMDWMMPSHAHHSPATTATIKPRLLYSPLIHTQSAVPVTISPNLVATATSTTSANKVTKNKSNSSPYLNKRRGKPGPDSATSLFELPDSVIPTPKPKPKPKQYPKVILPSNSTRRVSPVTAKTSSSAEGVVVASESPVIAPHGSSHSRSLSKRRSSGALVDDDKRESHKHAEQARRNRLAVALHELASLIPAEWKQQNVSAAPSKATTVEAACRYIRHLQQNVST

Row | Sequence | relative binding free energy [kcal/mol]
1 | TTTGGCACGTGGAGGT | -0.09
2 | GGGCGCACGTGGTGGA | -0.12
3 | AAGCGCACGTGATGTG | -0.03
4 | TGGGACACGTGTATGC | 0.11
5 | CGTTTCACGTGAGGAG | 0.22
6 | TGGAGCACGTGGGCGC | -0.24
7 | GAGCGCACGTGCTTGG | 0.01
8 | AATCTCACGTGGGGTG | 0.19
9 | TAGCTCACGTGATGTT | 0.36
10 | GGAGGCACGTGGGCGA | -0.22
11 | TAAGTCACGTGCATTT | 0.18
12 | ATCTGCACGTGGAGGG | 0.03
13 | TCTCGCACGTGTTTTT | 0.02
14 | TGATGCACGTGGTTAG | -0.17
15 | TTAGGCACGTGCGATA | 0.04
16 | TGATGCACGTGGCGGA | -0.13
17 | TGTGTCACGTGAGCGG | 0.29
18 | CTGGGCACGTGTTAGG | -0.07
19 | TGCGGCACGTGTGGCG | -0.13
20 | TTGTGCACGTGGTCAT | -0.15
21 | TGCTACACGTGTGGGT | 0.13
22 | AAAGTCACGTGGTCAT | 0
23 | CGGCTCACGTGTAGGG | 0.11
24 | ATTTACACGTGATCGG | 0.18
25 | AGATTCACGTGGACGG | 0.19

Row | Sequence | relative binding free energy [kcal/mol]
26 | TGCCGCACGTGGGTTG | -0.15
27 | TGCTGCACGTGGGAAT | -0.07
28 | TTTAGCACGTGGTGGT | -0.21
29 | CTTTACACGTGGGGAT | 0.13
30 | TAGGACACGTGTATTA | 0.1
31 | CTGGGCACGTGTATTA | -0.07
32 | GATTTCACGTGATTTT | 0.65
33 | AATGGCACGTGTTGCG | -0.09
34 | TGGTCCACGTGGTGTG | -0.08
35 | GGGGACACGTGGCGTG | -0.02
36 | AGAGTCACGTGGCGGG | -0.02
37 | TCGTTCACGTGTAATT | 0.44
38 | TTAGCCACGTGAAGTG | 0.12
39 | TGGGACACGTGTTGCA | -0.03
40 | AATGTCACGTGCGGCG | -0.04
41 | TGCGGCACGTGCGATG | 0.01
42 | GGGGACACGTGCTATT | -0.01
43 | AATTTCACGTGAATCG | 0.47
44 | GTCAGCACGTGGCAGG | -0.1
45 | TGTTGCACGTGGGGGG | -0.08
46 | CGTATCACGTGGGCGT | 0.12
47 | GTTTGCACGTGTCAGA | 0.06
48 | AGTTTCACGTGTTTAA | 0.22
49 | AGGGGCACGTGCAAGA | -0.15
50 | TTAGCCACGTGGGTGA | -0.2

Row | Sequence | relative binding free energy [kcal/mol]
51 | AGAGACACGTGTTGTA | 0.06
52 | AGGTACACGTGGTGAA | -0.04
53 | AATATCACGTGTAGGT | 0.07
54 | TGTTGCACGTGTAGGA | 0.07
55 | GTGTACACGTGACAGT | 0.22
56 | GGTTGCACGTGAGATA | 0.36
57 | TACTGCACGTGGTGTA | -0.18
58 | GAACGCACGTGGGGCG | -0.15
59 | TTAGTCACGTGAGACT | 0.32
60 | TATTCCACGTGTGTGT | -0.05
61 | TGGGTCACGTGCACGT | 0.04
62 | ATAGTCACGTGGCGTG | -0.01
63 | TAAGGCACGTGTCGTT | -0.23
64 | CGGGCCACGTGTGTTG | -0.17
65 | GAGTGCACGTGTGGTC | 0
66 | AGGGCCACGTGGCTTG | -0.12
67 | GTGAGCACGTGTGCTT | -0.18
68 | CCAGGCACGTGGGTTT | -0.16
69 | GTTAACACGTGGTGAA | -0.08
70 | GATGACACGTGACGGG | 0.14
71 | AGATCCACGTGTGTGT | -0.09
72 | GTTACCACGTGTTGTG | 0
73 | GGCTTCACGTGTGTAT | 0.4
